# Results published in PubChem BioAssay AID504332 (National Center for Advancing Translational Sciences (NCATS), 2011).
# “And” between values parts separate entries of the source, which are not always exact repeats. Equal entries are not always repeated. Among all 350,000 compounds or so, about 31,000 (8.9%) were called active. Inconclusive means that the source gave no clear call. Such entries were picked first, then a sample of the others. The call rests on the fitted dose curve; in most records, active means well fitted inhibition curve with a large enough effect; inconclusive means small, poorly fitted or top-dose-only effect; inactive means no such curve, though single readings can be large or run the other way. Potencies beside an inconclusive call are fits to weak or partial responses and may not hold up. Some structures have more than one record in an assay (separate samples or runs), and their calls can disagree.
# Target: Histone-lysine N-methyltransferase EHMT2 (Homo sapiens) (UniProt Q96KQ7)
# Sequence of UniProt Q96KQ7 (Q96KQ7 whole entry, looked up): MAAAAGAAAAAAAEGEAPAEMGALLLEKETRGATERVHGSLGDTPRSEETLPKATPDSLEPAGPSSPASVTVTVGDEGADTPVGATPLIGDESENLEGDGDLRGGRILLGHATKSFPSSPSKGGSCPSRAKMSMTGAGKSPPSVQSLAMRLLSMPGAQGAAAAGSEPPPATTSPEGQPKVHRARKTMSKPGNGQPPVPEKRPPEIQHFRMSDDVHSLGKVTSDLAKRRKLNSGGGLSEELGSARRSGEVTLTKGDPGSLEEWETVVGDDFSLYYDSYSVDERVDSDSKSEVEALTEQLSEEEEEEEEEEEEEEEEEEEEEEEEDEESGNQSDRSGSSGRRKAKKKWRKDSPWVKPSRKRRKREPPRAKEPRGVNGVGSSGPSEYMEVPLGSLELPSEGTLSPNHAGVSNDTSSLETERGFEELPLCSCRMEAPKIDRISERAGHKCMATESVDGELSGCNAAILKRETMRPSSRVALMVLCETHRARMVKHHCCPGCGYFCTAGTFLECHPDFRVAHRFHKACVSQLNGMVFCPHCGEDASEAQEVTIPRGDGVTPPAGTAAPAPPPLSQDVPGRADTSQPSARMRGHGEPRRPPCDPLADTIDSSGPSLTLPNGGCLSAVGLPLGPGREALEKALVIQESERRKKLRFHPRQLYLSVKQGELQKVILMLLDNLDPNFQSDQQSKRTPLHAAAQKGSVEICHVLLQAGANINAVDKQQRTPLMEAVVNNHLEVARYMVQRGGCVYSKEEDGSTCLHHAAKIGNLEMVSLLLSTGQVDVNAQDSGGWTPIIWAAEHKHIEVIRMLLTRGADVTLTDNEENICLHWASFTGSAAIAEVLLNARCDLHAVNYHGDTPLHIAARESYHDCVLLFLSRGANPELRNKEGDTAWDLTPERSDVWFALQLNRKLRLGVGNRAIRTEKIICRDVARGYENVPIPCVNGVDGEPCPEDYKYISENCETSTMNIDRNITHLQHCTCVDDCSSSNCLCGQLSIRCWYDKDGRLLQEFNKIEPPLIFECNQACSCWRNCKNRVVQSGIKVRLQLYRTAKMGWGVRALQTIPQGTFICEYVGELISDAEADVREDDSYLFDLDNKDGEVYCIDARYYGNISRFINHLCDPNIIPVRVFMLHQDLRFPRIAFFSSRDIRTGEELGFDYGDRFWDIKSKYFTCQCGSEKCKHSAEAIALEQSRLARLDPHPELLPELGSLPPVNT
# Experiment: qHTS Assay for Inhibitors of Histone Lysine Methyltransferase G9a; further: nearly all actives have a fitted effect of over 75% in size
# Conditions: G9a H3K9 monomethylation, AlphaScreen, 2 h; activity, negative = inhibition: at 59 µM (top of the series) unless noted
# Outline: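 AlphaScreen read-out: biotin-H3K9 peptide (500 nM) methylation by 20 nM enzyme with 20 uM SAM, 2 h at room temperature after 15 min compound preincubation; anti-monomethyl H3K9 antibody plus donor/acceptor beads, 10 min dark.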
# On the % scale 0 is the no-effect control and ±100 the full control effect; potency means the concentration at half of the fitted maximal effect; tags describe the fitted curve by direction and shape.
Compound,Potency,"activity, negative = inhibition"
CS(=O)(=O)N1CCN(c2ccc([N+](=O)[O-])cc2C(F)(F)F)CC1,inactive,
COc1ccccc1NC(=O)C(C)N1CCN(C/C=C/c2ccccc2)CC1 (stereo not drawn),"inconclusive: 89.1 µM [inhibitor, single point]",
CCCCNC(=O)c1ccc2c(c1)NC(=O)C(C(C)C)N2 (stereo not drawn),"inconclusive: 3.98 µM [inhibitor, partial curve, poor fit]",
Cc1c(C(=O)N2CCC(C)CC2)oc2ccc(S(=O)(=O)N3CCC4(CC3)OCCO4)cc12,"inconclusive: 89.1 µM [inhibitor, single point]",
COc1ccc2c(c1)C(NS(=O)(=O)OCC(Cl)(Cl)Cl)CCC2 (stereo not drawn),"inconclusive: 89.1 µM [inhibitor, single point]",
CC(=O)COc1ccc2c(c1C)O/C(=C\c1ccco1)C2=O,active: 28.2 µM,
CN(C(=O)COC(=O)c1cc(S(=O)(=O)N2CCOCC2)ccc1Cl)C1CCS(=O)(=O)C1 (stereo not drawn),inactive,
COC(=O)c1ccccc1NC(=O)CS(=O)(=O)Cc1nc(-c2ccc(C)cc2)oc1C,"inconclusive: 79.4 µM [inhibitor, single point]",
O=C1c2cccc3cccc(c23)C(=O)N1CCCc1n[nH]c(=S)n1-c1ccccc1,active: 3.98 µM,
CCOC(=O)C1=C(CN(CC)Cc2ccccc2)NC(=O)NC1c1ccc(OC)cc1 (stereo not drawn),"inconclusive: 31.6 µM [inhibitor, partial curve, poor fit]",
Brc1ccc(-c2csc(N/N=C/c3cccnc3)n2)cc1,active: 14.1 µM,
COc1ccc(-n2c(=O)c(-c3ccccc3)nc3cncnc32)cc1,,inactive: 7.23% [at 0.501 µM]
CCOC(=O)c1cc2c(N)c(C(=O)c3ccc(Br)cc3)sc2[nH]c1=O,active: 50.1 µM,
CCOc1cccc(-c2nc3ccccc3c(=O)o2)c1,inactive,
O=C1CN(C(=O)c2cccc(Br)c2)C(c2ccccc2)c2cc(Cl)ccc2N1 (stereo not drawn),"inconclusive: 3.55 µM [inhibitor, partial curve, poor fit]",
O=C(CSc1ccc(Cl)cc1)NC(=O)NC1CCCC1,inactive,
COc1ccc(N2CCN(C(=O)CCNS(=O)(=O)c3ccc4c(c3)CCC(=O)N4)CC2)cc1,"inconclusive: 31.6 µM [inhibitor, single point]",
CCCCCCCC1=CC2=CC(=O)C(C)(OC(C)=O)C(=O)C2=CN1CCc1ccccc1 (stereo not drawn),active: 39.8 µM,
Cc1cccc(NC(=O)Nc2cnccn2)c1,"inconclusive: 50.1 µM [inhibitor, partial curve, poor fit]",
C[n+]1cccc(C(=O)NNC(=O)C23CC4CC(CC(C4)C2)C3)c1,"inconclusive: 14.1 µM [inhibitor, full curve]",
O=C1NC(=O)/C(=C\c2ccc(Br)o2)S1,active: 44.7 µM,
CCC(C)/C(C)=N/Nc1ccc(S(N)(=O)=O)cc1[N+](=O)[O-] (stereo not drawn),"inconclusive: 70.8 µM [inhibitor, single point]",
Cc1sc2ncnc(N/N=C/c3ccc(O)cc3)c2c1C,inactive,

Compound,Potency,"activity, negative = inhibition"
CCOc1ccc(C(=O)Nc2cc(-c3nc4ccccc4[nH]3)ccc2C)cc1[N+](=O)[O-],inactive,
CCOC(=O)c1sc(N2C(=O)C(O)=C(C(=O)c3ccco3)C2c2ccc(C)o2)nc1C (stereo not drawn),active: 11.2 µM,
CCOc1ccc(NC(=O)/C(C#N)=C/c2cn(CC(=O)O)c3ccccc23)cc1,"inconclusive: 56.2 µM [inhibitor, partial curve]",
COc1ccc(Cl)cc1NC(=O)C(=O)NCc1ccc(Cl)cc1,inactive,
CC(C)CC(O)(CC(C)C)C(=O)NNc1ccccc1,"inconclusive: 25.1 µM [inhibitor, single point]",
N/C(=N\OCc1ccc([N+](=O)[O-])cc1)c1ccccn1,"inconclusive: 17.8 µM [inhibitor, partial curve, poor fit]",
COC(=O)C1=C(C)NC(C)=C(C(=O)OC(C)(C)CN(C)CCC(c2ccccc2)c2ccccc2)C1c1cccc([N+](=O)[O-])c1 (stereo not drawn),"inconclusive: 1.58 µM [inhibitor, partial curve, poor fit] and inconclusive: 39.8 µM [inhibitor, single point]",
CC(C)c1ccc(NNC(=O)C2CCC2)cc1,active: 7.08 µM,
COc1ccc2[nH]c(=O)c(CN(Cc3nnnn3Cc3ccc(F)cc3)CC3CCCO3)cc2c1 (stereo not drawn),"inconclusive: 89.1 µM [inhibitor, single point]",
CCn1c(C(=O)N2CCC(C(=O)NCc3ccc4c(c3)OCO4)CC2)cc2sccc21,active: 44.7 µM,
N=C1/C(=C/c2cccn2Cc2ccc(Cl)cc2)C(=O)N=C2SC=CN12,inactive,
CC(C)c1ccc(C2(C)NC(=O)N(CC(=O)NC3(C#N)CCCC3)C2=O)cc1 (stereo not drawn),"inconclusive: 6.31 µM [inhibitor, single point]",
Cc1cccn2c(=O)cc(COc3ccc(NC(=O)COc4ccc(F)cc4)cc3)nc12,inactive,
COC(=O)C1=C(C)N(c2cccc(C(C)=O)c2)C(=O)C1,"inconclusive: 39.8 µM [inhibitor, single point]",
CCOC(=O)c1cnc(NCc2ccc(OC)cc2OC)c2ccccc12,inactive,
O=C(NCC1CCCO1)c1csc2c1CCCCC2 (stereo not drawn),inactive,
O=C(NC(=S)Nc1ccc(Cc2ccncc2)cc1)c1ccccc1,"inconclusive: 2.24 µM [inhibitor, full curve, poor fit]",
COc1ccc2c(c1)c1c(c(=O)n(Cc3ccccc3)c(=O)n1CC(=O)Nc1ccccc1F)n2C,inactive,
Cc1ccc(N(C)C(=O)N2CCN(S(=O)(=O)c3ccc(C)c(C)c3)CC2)cc1,inactive,
CN1C=CC=C/C1=C(\C#N)c1nc2ccccc2[nH]1,"inconclusive: 17.8 µM [inhibitor, partial curve, poor fit]",
Cc1cccc(CCn2c(=O)c3ccccc3n(Cc3ccccc3C)c2=O)c1,inactive,
Cc1ccc(C(=O)c2sc(Nc3ccc(F)cc3)c(C#N)c2N)cc1,"inconclusive: 7.94 µM [inhibitor, partial curve, poor fit]",
O=C(c1cc(-c2cccs2)nc2ccccc12)N1CCN(c2ccccc2O)CC1,"inconclusive: 50.1 µM [inhibitor, partial curve, poor fit]",

Compound,Potency,"activity, negative = inhibition"
O=C(Nc1ccccc1N1CCCCC1)c1ccc(N2C(=O)c3ccccc3C2=O)cc1,"inconclusive: 11.2 µM [inhibitor, partial curve, poor fit]",
Cc1ccc(CNC(=O)C2CCC(=O)N(CCCN3CCOCC3)C2)cc1 (stereo not drawn),"inconclusive: 89.1 µM [inhibitor, single point]",
CCOC(=O)C1CCN(c2cc3c(cc2NC(=O)c2ccccc2Cl)n(C)c(=O)n3C)CC1,active: 8.91 µM,
O=C(O)CCc1ccc(-c2ccc(Br)cc2)n1-c1ccccc1O,"inconclusive: 31.6 µM [inhibitor, partial curve, poor fit]",
COc1ccc(N2COC3c4cccc5cccc(c45)C32)cc1 (stereo not drawn),"inconclusive: 11.2 µM [inhibitor, partial curve, poor fit]",
NC(=O)c1cc(N)ccc1N1CCCC1,"inconclusive: 22.4 µM [inhibitor, single point]",
COc1ccc(OC)c(NC(=O)CSc2nnc(Cc3cccn3C)n2CCc2ccccc2)c1,active: 50.1 µM,
CCOc1ccc(-c2nnc(SCC(=O)Nc3ccc4c(c3)c3ccccc3n4CC)n2N)cc1,"inconclusive: 39.8 µM [inhibitor, single point]",
Cc1ccc2nc(SCc3nc4cc(Cl)ccc4c(=O)[nH]3)[nH]c2c1,"inconclusive: 70.8 µM [inhibitor, single point]",
CC(=O)N1CCOc2ccc(S(=O)(=O)NCCc3ccc(Cl)cc3)cc21,"inconclusive: 44.7 µM [inhibitor, partial curve]",
CCCC(=O)NC(=S)Nc1ccc(C(C)=O)cc1,"inconclusive: 31.6 µM [inhibitor, single point]",
COC(=O)c1ccc2[nH]c(C)cc(=O)c2c1,"inconclusive: 89.1 µM [inhibitor, partial curve, poor fit]",
CCN(CC)CCCNC1=C(Cl)C(=O)c2ccccc2C1=O,"inconclusive: 44.7 µM [inhibitor, partial curve, poor fit]",
COC(=O)c1c(C)n(-c2ccc(OC)cc2)c2ccc(O)cc12,"inconclusive: 3.98 µM [inhibitor, single point]",
COc1ccc(C(=O)CSc2nnc(CN3CCCCC3)n2-c2ccc(Cl)cc2)cc1OC,"inconclusive: 25.1 µM [inhibitor, single point]",
CC1CCc2c(C(=O)N3CCN(S(=O)(=O)c4cccs4)CC3)csc2C1 (stereo not drawn),"inconclusive: 2.24 µM [inhibitor, partial curve, poor fit]",
CC(=O)N1CCc2cc(S(=O)(=O)NC(Cc3ccccc3)C(=O)NC3CCCCCC3)ccc21 (stereo not drawn),"inconclusive: 89.1 µM [inhibitor, single point]",
CC(=O)c1ccccc1NC(=O)COC(=O)C1CCCN1S(=O)(=O)c1ccccc1F (stereo not drawn),"inconclusive: 5.01 µM [inhibitor, single point]",
O=C(CCNC(=O)C1CCN(S(=O)(=O)c2ccccc2)CC1)NCc1ccc(Cl)c(Cl)c1,inactive,
Nc1cc(N)cc(C(=O)OCC(=O)Nc2cc(S(=O)(=O)N3CCCCC3)ccc2Cl)c1,active: 31.6 µM,
CCOc1ccccc1OCCCC(=O)N(CC)CC(=O)Nc1ccc(NC(C)=O)cc1,active: 50.1 µM,
Cc1ccc(Nc2nc(N3CCN(C)CC3)nc(N)c2[N+](=O)[O-])cc1C,"inconclusive: 25.1 µM [inhibitor, single point]",
